Here are results for three compounds from article PMC9443850, “There is no F in APC: Using physiological fluoride-free solutions for high throughput automated patch clamp experiments” (Frontiers in Molecular Neuroscience, 2022).

Experiment [1] concerns the target NaV1.5 expressed in CHO cells (Homo sapiens, UniProt Q14524). In words: NaV1.5 peak current, automated patch clamp (SyncroPatch 384), 3-step protocol and activation/inactivation IV. As to conditions: both standard and fluoride-free internal solution.
For experiment [2], the target named is KCa3.1 (SK4) expressed in CHO cells (Homo sapiens, UniProt O15554). In words: KCa3.1 current, voltage ramp, automated patch clamp (SyncroPatch 384), internal perfusion of free Ca2+ / external Ba2+. As to conditions: for IC50: read-out: IC50 for external Ba2+, 4X chips, mean of 2 chips ± S.D.; for EC50: read-out: EC50 for internal free Ca2+, mean ± S.E.M. A general note: The patch-clamp technique gives a direct electrical read-out from membranes.

SMILES strings stand for the structures. Like-named read-outs stand apart in the source and are kept apart here.

`CCCCNc1ccc(C(=O)OCCN(C)C)cc1` [Tetracaine]: in experiment [1], the “decrease of IC50 from holding potential -120 mV compared with -100 and -80 mV” value is recorded as 4–7 fold.
On to `[Ba+2]` [Ba^2+], for which the IC50 – broadly, the point on the concentration scale where inhibition reaches its midpoint – in experiment [2] (fluoride-free internal solution, -120 mV) is 158 ± 15 µM; in experiment [2] (standard internal solution, -120 mV) it was 170 ± 8 µM. Moreover, the “increase of IC50 at 60 mV vs -120 mV” value in experiment [2] (standard and fluoride-free internal solution) is roughly 3 fold.
Turning to `[Ca+2]` [Ca^2+], the concentration for a half-maximal effect (EC50) (usually the concentration giving half of the maximal effect) is 635 ± 20 nM in experiment [2] (fluoride-free internal solution, 60 mV, n = 121); 676 ± 22 nM in experiment [2] (fluoride-free internal solution, -120 mV, n = 121); 808 ± 50 nM in experiment [2] (standard internal solution, 60 mV, n = 66); 773 ± 44 nM in experiment [2] (standard internal solution, -120 mV, n = 66).
